Reference: the supplement of paper PMC4967469
A lower IC50 marks a more sensitive line; fits outside the tested doses are given as limits. The AUC spans the tested range (256-fold, ending at the top dose) of the same fit; the more sensitive the line, the further below 1. For some of these results: Any top dose called inferred was derived from the fitted curves, not read from the paper. For some of these results: An entry number marks a drug with two screens in the source, which often give different values.

How the values were obtained:
Experiment in all cases: Viability of human cancer cell lines after 72 h of drug (GDSC screen)
LFM-A13 = compound: C/C(O)=C(\C#N)C(=O)Nc1cc(Br)ccc1Br [LFM-A13]; settings: top dose 16 µM; top dose inferred
Protocol: (§1)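 Human cancer cell lines in 384-well plates, medium with 10% serum, drug for 72 h over a 256-fold dose range (nine 2-fold or five 4-fold steps up to the top dose). Adherent lines were fixed and stained with the nucleic acid dye Syto60, suspension lines read with resazurin; signal relative to control wells, capped at 0 and 100%. One two-parameter sigmoid per drug and line, fitted in a mixed model over all curves with the slope shared within a line.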

TW-37 = compound: CC(C)c1ccccc1Cc1cc(C(=O)Nc2ccc(S(=O)(=O)c3ccccc3C(C)(C)C)cc2)c(O)c(O)c1O [TW-37]; settings: top dose 5 µM
Protocol: as §1

Bicalutamide = compound: CC(O)(CS(=O)(=O)c1ccc(F)cc1)C(=O)Nc1ccc(C#N)c(C(F)(F)F)c1 [Bicalutamide]; settings: top dose inferred
Protocol: as §1

AUY922 = compound: CCNC(=O)c1noc(-c2cc(C(C)C)c(O)cc2O)c1-c1ccc(CN2CCOCC2)cc1 [AUY922]; settings: top dose 0.256 µM; top dose inferred
Protocol: as §1

KIN001-270 = compound: Cc1ccc(Nc2cc(-c3cccc(N4C(=O)c5ccccc5C4=O)c3)ncn2)cc1NS(C)(=O)=O [KIN001-270]; settings: top dose 20 µM; top dose inferred
Protocol: as §1

Nilotinib = compound: Cc1cn(-c2cc(NC(=O)c3ccc(C)c(Nc4nccc(-c5cccnc5)n4)c3)cc(C(F)(F)F)c2)cn1 [Nilotinib]; settings: top dose 2 µM
Protocol: as §1

Gemcitabine = compound: Nc1ccn([C@@H]2O[C@H](CO)[C@@H](O)C2(F)F)c(=O)n1 [Gemcitabine]; settings: top dose 1.024 µM
Protocol: as §1

T0901317 = compound: O=S(=O)(c1ccccc1)N(CC(F)(F)F)c1ccc(C(O)(C(F)(F)F)C(F)(F)F)cc1 [T0901317]; settings: top dose 10.24 µM; top dose inferred
Protocol: as §1

MP470 = compound: S=C(NCc1ccc2c(c1)OCO2)N1CCN(c2ncnc3c2oc2ccccc23)CC1 [MP470]; settings: top dose 20 µM; top dose inferred
Protocol: as §1

[1] = top dose 1.024 µM, screen: GDSC drug entry 150
[2] = top dose 10 µM, screen: GDSC drug entry 1502

Cell Line	AUC (LFM-A13)	IC50 (LFM-A13)	AUC (TW-37)	IC50 (TW-37)	AUC (Bicalutamide; [1])	IC50 (Bicalutamide; [1])	AUC (Bicalutamide; [2])	IC50 (Bicalutamide; [2])	AUC (AUY922)	IC50 (AUY922)	AUC (KIN001-270)	IC50 (KIN001-270)	AUC (Nilotinib)	IC50 (Nilotinib)	AUC (Gemcitabine)	IC50 (Gemcitabine)	AUC (T0901317)	IC50 (T0901317)	AUC (MP470)	IC50 (MP470)
SK-HEP-1 (liver, adherent)	0.973	> 16000 nM	0.703	1110 nM	0.989	> 1020 nM	0.986	> 10000 nM	0.413	9.41 nM	0.975	> 20000 nM	0.989	> 2000 nM	0.285	16.5 nM	0.973	> 10200 nM	0.801	9010 nM
FTC-133 (thyroid, adherent)	0.982	> 16000 nM	0.613	660 nM	0.986	> 1020 nM	0.971	> 10000 nM	0.94	> 256 nM	0.948	> 20000 nM	0.986	> 2000 nM	0.586	113 nM	0.957	> 10200 nM	0.237	198 nM
NCI-H2110 (non-small cell lung carcinoma, adherent)	0.979	> 16000 nM	0.761	1810 nM	0.986	> 1020 nM	0.984	> 10000 nM	0.592	28.7 nM	0.986	> 20000 nM	0.986	> 2000 nM	0.105	< 4 nM	0.985	> 10200 nM	0.958	> 20000 nM
KON (head and neck, adherent)	0.97	> 16000 nM	0.447	225 nM	0.986	> 1020 nM	0.968	> 10000 nM	0.408	9 nM	0.98	> 20000 nM	0.987	> 2000 nM	0.288	16.4 nM	0.977	> 10200 nM	0.953	> 20000 nM
NCI-H1435 (lung adenocarcinoma, semi-adherent)	0.931	> 16000 nM	0.933	> 5000 nM	0.982	> 1020 nM	0.989	> 10000 nM	0.87	195 nM	0.983	> 20000 nM	0.985	> 2000 nM	0.888	936 nM	0.992	> 10200 nM	0.983	> 20000 nM
RH-41 (rhabdomyosarcoma, adherent)	0.985	> 16000 nM	0.37	147 nM	0.992	> 1020 nM	0.986	> 10000 nM	0.765	79.2 nM	0.989	> 20000 nM	0.989	> 2000 nM	0.898	910 nM	0.985	> 10200 nM	0.887	16000 nM
HT-3 (cervix, adherent)	0.982	> 16000 nM	0.461	244 nM	0.843	746 nM	0.972	> 10000 nM	0.901	> 256 nM	0.983	> 20000 nM	0.977	> 2000 nM	0.69	220 nM	0.985	> 10200 nM	0.952	> 20000 nM
TOV-112D (ovary, adherent)	0.981	> 16000 nM	0.437	211 nM	0.967	> 1020 nM	0.928	> 10000 nM	0.452	11.9 nM	0.921	> 20000 nM	0.984	> 2000 nM	0.052	< 4 nM	0.944	> 10200 nM	0.728	5570 nM
EGI-1 (biliary tract, adherent)	0.979	> 16000 nM	0.704	1410 nM	0.982	> 1020 nM	0.957	> 10000 nM	0.754	110 nM	0.965	> 20000 nM	0.968	> 2000 nM	0.62	152 nM	0.973	> 10200 nM	0.933	> 20000 nM
RERF-LC-MS (lung adenocarcinoma, adherent)	0.986	> 16000 nM	0.32	96.5 nM	0.981	> 1020 nM	0.968	> 10000 nM	0.733	75.7 nM	0.982	> 20000 nM	0.987	> 2000 nM	0.635	152 nM	0.959	> 10200 nM	0.887	> 20000 nM
ECC10 (stomach, suspension)	0.983	> 16000 nM	0.542	409 nM	0.985	> 1020 nM	0.973	> 10000 nM	0.749	86.2 nM	0.927	> 20000 nM	0.92	> 2000 nM	0.805	545 nM	0.976	> 10200 nM	0.865	19100 nM
OCUM-1 (stomach, adherent)	0.982	> 16000 nM	0.56	463 nM	0.977	> 1020 nM	0.984	> 10000 nM	0.736	82.4 nM	0.983	> 20000 nM	0.987	> 2000 nM	0.385	29.8 nM	0.968	> 10200 nM	0.865	> 20000 nM
CHL-1 (melanoma, adherent)	0.987	> 16000 nM	0.274	74.4 nM	0.987	> 1020 nM	0.968	> 10000 nM	0.555	22.5 nM	0.978	> 20000 nM	0.988	> 2000 nM	0.117	4.12 nM	0.958	> 10200 nM	0.935	> 20000 nM
WM1552C (melanoma, adherent)	0.981	> 16000 nM	0.687	1040 nM	0.988	> 1020 nM	0.981	> 10000 nM	0.578	26.2 nM	0.984	> 20000 nM	0.987	> 2000 nM	0.066	< 4 nM	0.984	> 10200 nM	0.966	> 20000 nM
RT4 (bladder, adherent)	0.977	> 16000 nM	0.91	> 5000 nM	0.987	> 1020 nM	0.986	> 10000 nM	0.987	> 256 nM	0.964	> 20000 nM	0.98	> 2000 nM	0.969	> 1020 nM	0.987	> 10200 nM	0.909	> 20000 nM
H2722 (mesothelioma, adherent)	0.951	> 16000 nM	0.692	1210 nM	0.984	> 1020 nM	0.978	> 10000 nM	0.603	32.4 nM	0.98	> 20000 nM	0.984	> 2000 nM	0.772	470 nM	0.984	> 10200 nM	0.977	> 20000 nM
IGR-37 (melanoma, adherent)	0.989	> 16000 nM	0.433	208 nM	0.983	> 1020 nM	0.984	> 10000 nM	0.48	14.2 nM	0.971	> 20000 nM	0.958	> 2000 nM	0.172	7.37 nM	0.988	> 10200 nM		
PFSK-1 (medulloblastoma, adherent)	0.982	> 16000 nM			0.985	> 1020 nM			0.771	104 nM	0.959	> 20000 nM	0.938	> 2000 nM	0.826	671 nM	0.977	> 10200 nM	0.905	> 20000 nM
KYSE-450 (oesophagus, adherent)	0.976	> 16000 nM			0.988	> 1020 nM	0.984	> 10000 nM	0.428	10.3 nM	0.985	> 20000 nM	0.988	> 2000 nM	0.299	18 nM	0.979	> 10200 nM	0.963	> 20000 nM
VMRC-RCW (kidney, adherent)	0.952	> 16000 nM			0.989	> 1020 nM			0.481	14.3 nM	0.983	> 20000 nM	0.983	> 2000 nM	0.183	7.89 nM	0.987	> 10200 nM	0.964	> 20000 nM
MDA-MB-415 (breast, adherent)	0.927	> 16000 nM			0.982	> 1020 nM	0.942	> 10000 nM	0.822	221 nM	0.979	> 20000 nM	0.983	> 2000 nM	0.94	> 1020 nM	0.969	> 10200 nM	0.608	2740 nM
H290 (mesothelioma, adherent)	0.962	> 16000 nM	0.466	255 nM	0.983	> 1020 nM	0.987	> 10000 nM	0.561	23.1 nM			0.989	> 2000 nM	0.199	9.07 nM	0.989	> 10200 nM	0.854	13700 nM
LN-405 (glioma, adherent)	0.974	> 16000 nM			0.983	> 1020 nM	0.955	> 10000 nM	0.894	> 256 nM	0.977	> 20000 nM	0.984	> 2000 nM	0.944	> 1020 nM	0.984	> 10200 nM	0.968	> 20000 nM
MDA-MB-330 (breast, adherent)	0.962	> 16000 nM			0.985	> 1020 nM	0.966	> 10000 nM	0.608	33 nM	0.976	> 20000 nM	0.986	> 2000 nM	0.977	> 1020 nM	0.984	> 10200 nM	0.942	> 20000 nM
SiHa (cervix, adherent)	0.951	> 16000 nM			0.986	> 1020 nM	0.973	> 10000 nM	0.954	> 256 nM	0.986	> 20000 nM	0.987	> 2000 nM	0.987	> 1020 nM	0.987	> 10200 nM	0.902	> 20000 nM
HSC-2 (head and neck, adherent)	0.981	> 16000 nM			0.989	> 1020 nM	0.968	> 10000 nM	0.358	6.68 nM	0.987	> 20000 nM	0.987	> 2000 nM	0.147	5.79 nM	0.985	> 10200 nM	0.964	> 20000 nM
LoVo (large intestine, adherent)	0.969	> 16000 nM			0.986	> 1020 nM	0.982	> 10000 nM	0.559	23.2 nM	0.987	> 20000 nM	0.97	> 2000 nM	0.284	15.6 nM	0.962	> 10200 nM	0.742	6200 nM
G-292 Clone A141B1 (osteosarcoma, adherent)	0.952	> 16000 nM			0.84	> 1020 nM	0.967	> 10000 nM	0.608	37.7 nM	0.976	> 20000 nM	0.954	> 2000 nM	0.976	> 1020 nM	0.962	> 10200 nM	0.976	> 20000 nM
